The text below walks through data of PMC8866485, “Cell surface nucleolin is a novel ADAMTS5 receptor mediating endothelial cell apoptosis” (Cell Death & Disease, 2022).

Chains of the proteins cited; added tags and fusions are not shown. Lines headed by an entry give the natural chain unless they say otherwise; changes in a name come on top. A line that says so, or that is headed by a name, gives the form on record, which may keep a tag or linker. Residues count along the entry.
UniProt P19338: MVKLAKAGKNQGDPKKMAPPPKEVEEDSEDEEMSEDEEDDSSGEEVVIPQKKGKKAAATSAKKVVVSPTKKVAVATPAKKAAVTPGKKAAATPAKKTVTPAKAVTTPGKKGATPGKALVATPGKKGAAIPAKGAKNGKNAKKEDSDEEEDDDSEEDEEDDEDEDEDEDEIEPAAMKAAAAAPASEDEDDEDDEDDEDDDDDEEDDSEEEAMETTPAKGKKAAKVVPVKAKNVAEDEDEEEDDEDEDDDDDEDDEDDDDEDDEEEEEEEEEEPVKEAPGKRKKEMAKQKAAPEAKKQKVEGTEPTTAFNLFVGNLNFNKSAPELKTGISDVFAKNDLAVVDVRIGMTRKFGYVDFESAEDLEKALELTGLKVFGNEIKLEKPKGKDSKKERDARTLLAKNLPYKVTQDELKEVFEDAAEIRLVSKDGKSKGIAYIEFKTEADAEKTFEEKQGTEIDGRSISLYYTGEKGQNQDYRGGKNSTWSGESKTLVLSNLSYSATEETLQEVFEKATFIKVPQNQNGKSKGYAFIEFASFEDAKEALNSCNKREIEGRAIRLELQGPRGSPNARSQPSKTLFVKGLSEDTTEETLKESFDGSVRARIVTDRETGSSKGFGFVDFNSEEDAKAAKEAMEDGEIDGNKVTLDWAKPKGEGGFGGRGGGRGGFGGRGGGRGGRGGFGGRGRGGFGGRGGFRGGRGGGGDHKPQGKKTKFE
FLAG-tagged NCLΔGAR (1-652): residues 1-652 of P19338
FLAG-tagged NCLΔC (1-269): residues 1-269 of P19338
FLAG-tagged NCLΔN (270-710): residues 270-710 of P19338
FLAG-tagged NCL-RBD (270-652): residues 270-652 of P19338
UniProt Q14764: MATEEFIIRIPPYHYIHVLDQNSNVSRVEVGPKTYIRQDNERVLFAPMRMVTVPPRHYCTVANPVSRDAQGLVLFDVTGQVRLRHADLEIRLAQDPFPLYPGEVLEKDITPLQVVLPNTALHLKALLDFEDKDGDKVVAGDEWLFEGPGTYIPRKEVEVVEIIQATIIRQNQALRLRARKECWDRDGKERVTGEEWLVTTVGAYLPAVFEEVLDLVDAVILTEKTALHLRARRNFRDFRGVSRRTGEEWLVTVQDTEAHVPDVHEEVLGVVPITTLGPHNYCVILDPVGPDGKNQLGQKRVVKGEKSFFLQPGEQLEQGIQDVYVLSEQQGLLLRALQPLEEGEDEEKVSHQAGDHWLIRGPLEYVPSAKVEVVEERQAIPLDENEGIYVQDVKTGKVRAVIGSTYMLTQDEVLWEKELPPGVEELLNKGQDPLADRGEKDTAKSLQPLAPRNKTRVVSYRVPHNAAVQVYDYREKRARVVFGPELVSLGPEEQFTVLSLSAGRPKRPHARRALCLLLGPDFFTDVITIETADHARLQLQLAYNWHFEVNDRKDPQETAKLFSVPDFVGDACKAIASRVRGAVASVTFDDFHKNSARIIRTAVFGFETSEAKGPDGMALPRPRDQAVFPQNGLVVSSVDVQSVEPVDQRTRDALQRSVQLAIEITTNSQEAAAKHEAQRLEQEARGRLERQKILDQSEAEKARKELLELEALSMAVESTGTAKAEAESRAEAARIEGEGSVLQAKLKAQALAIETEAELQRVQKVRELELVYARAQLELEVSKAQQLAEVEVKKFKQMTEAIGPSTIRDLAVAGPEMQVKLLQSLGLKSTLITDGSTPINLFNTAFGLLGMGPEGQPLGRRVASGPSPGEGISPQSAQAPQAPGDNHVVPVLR

Results are given in words; binding and its absence hold for the method and conditions named. For part of these data: In cells and extracts the contact can be indirect. Some results given as binding are weak or reduced against the parent protein; the word gives no strength. Sequences can lack the tags named with a protein.

The target of assay [1] is Endogenous nucleolin (NCL) of HUVECs (human (endogenous in HUVEC)) (UniProt P19338). The experiment in a line: pull-down; surface proteins of intact HUVECs biotinylated (Sulfo-NHS-LC-Biotin), cells treated with 250 nM TS5-p45 for 1 h; streptavidin magnetic beads on WCL and nuclear fractions; blots for NCL and His; also after 3 mM CaCl2 or 5 mM EGTA pre-treatment; only the binder purified.

Assay [2] shares this target. Kind of assay: flow cytometry on cells; unfixed, non-permeabilised HUVECs incubated with TS5-p45 at 4 C for 4 h; anti-His-FITC detection; untransfected, siCtrl- and siNCL-transfected cells; only the binder purified.
Assay [3] has as its target FLAG-tagged full-length NCL (NCL-FL 1-710) (UniProt P19338). The experiment in a line: co-IP; FLAG-tagged NCL or truncates (2 mg HEK293T WCL/reaction) incubated with His-tagged TS5-p45 (1 ug/reaction) at 4 C overnight; anti-FLAG M2 affinity gel; anti-FLAG and anti-His blots; only the binder purified.
The target of assay [4] is FLAG-tagged NCL-RBD (270-652) (UniProt P19338). The assay is described as above.
The target of assay [5] is FLAG-tagged NCLΔN (270-710) (UniProt P19338). The assay is described as above.
The target of assay [6] is FLAG-tagged NCLΔGAR (1-652) (UniProt P19338). Described as above.
Assay [7] addresses FLAG-tagged NCLΔC (1-269) (UniProt P19338). Kind of assay: condition: 1 ug TS5-p45/reaction with 2 mg WCL/reaction; co-IP; FLAG-tagged NCL or truncates (2 mg HEK293T WCL/reaction) incubated with His-tagged TS5-p45 (1 ug/reaction) at 4 C overnight; anti-FLAG M2 affinity gel; anti-FLAG and anti-His blots; only the binder purified.
The target of assay [8] is Recombinant human MVP (rhMVP) (human) (UniProt Q14764). The experiment in a line: co-IP; two-way co-IP (both directions) with purified recombinant proteins; both purified.
Assay [9] concerns the target Endogenous nucleolin (NCL) of HUVECs (human (endogenous in HUVEC)) (UniProt P19338). The experiment in a line: ELISA; cellular ELISA: fixed, non-permeabilised HUVECs treated with TS5-p45 at room temperature for 2 h; anti-His detection; untransfected, siCtrl- and siNCL-transfected cells; only the binder purified.

B1: Recombinant human TS5-p45 (C-terminal His-tagged, Ser262-Pro622 truncate of ADAMTS5) (domain or fragment, UniProt Q9UNA0 262-622, looked up)
chain: SISRARQVELLLVADASMARLYGRGLQHYLLTLASIANRLYSHASIENHIRLAVVKVVVLGDKDKSLEVSKNAATTLKNFCKWQHQHNQLGDDHEEHYDAAILFTREDLCGHHSCDTLGMADVGTICSPERSCAVIEDDGLHAAFTVAHEIGHLLGLSHDDSKFCEETFGSTEDKRLMSSILTSIDASKPWSKCTSATITEFLDDGHGNCLLDLPRKQILGPEELPGQTYDATQQCNLTFGPEYSVCPGMDVCARLWCAVVRQGQMVCLTKKLPAVEGTPCGKGRICLQGKCVDKTKKKYYSTSSHGNWGSWGSWGQCSRSCGGGVQFAYRHCNNPAPRNNGRYCTGKRAIYRSCSLMPCP
notes: ADAMTS5 (A Disintegrin and Metalloproteinase with Thrombospondin Motifs 5, aggrecanase-2), human, residues Ser262-Pro622; also called 45 kDa truncate of ADAMTS5; source: bought: R&D Systems (2198-AD-01M); not shown: His tag, C-terminal, kept
For the molecule B1, the binding entry in assay [1], in [2], in [3], in [4], in [5] and in [6] was “binds” throughout. Moreover, the binding entry in [7] is “no binding”; in assay [8] it was “no binding”; in assay [9], “binds”.
